Some of the results follow. Shown are side measurements of this screen, not its main read-out; they come without a call. Most of these compounds were active or inconclusive in the main read-out, so they are no random draw.

The assay can be described thus: inhibitors of hepatocyte lipid droplet formation, primary screen, imaging, high-throughput imaging, BODIPY stain (AID 1656).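 Also: cells counted across two imaged fields per well.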 To be noted: AML12 mouse hepatocytes, oleate lipid droplets, measured here: cell count, cytotoxicity flag, at 6.5 µM. The gist of the method:
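Material – mouse AML12 hepatocyte cell line, fixed after treatment · Compound dosing – one dose, 6.5 µM compound · Times – compound with oleate, overnight · Measured by – Image-based BODIPY and DAPI two-channel analysis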
Compound `Cc1c(C(=O)O)sc2nc3n(c(=O)c12)CCC(C)CC3` (stereo unspecified) came in with a cell count of 716 cells. In the case of `O=C(CCC(=O)c1ccc(F)cc1)Nc1cccc(S(=O)(=O)Nc2cccc(Cl)c2)c1` it was 787 cells; in that of `Cc1sc(NC(=O)c2ccco2)c(C(Nc2ccccn2)c2ccccc2)c1C` (stereo unspecified), 148 cells; in that of `Cc1sc(NC(=O)Cc2ccc3c(c2)OCO3)nc1-c1ccc2c(c1)CCN2C(=O)c1ccccc1F`, 624 cells.

As for `CC1CCN(C2=C(NS(=O)(=O)c3ccc(Br)cc3)C(=O)c3ccccc3C2=O)CC1`, the cell count was found to be 737 cells. The result for `CCOc1ccc(CCNC(=O)Cn2c(-c3nonc3N)nc3ccccc32)cc1OCC` reads 761 cells. For the compound `CCOc1ccc(CN(C)C(=O)CNC(=O)c2ccc(Br)o2)cc1OC`, the cell count turned out to be 759 cells. In the case of `CCN1CCN(c2cc(C(C)C)nc3c(-c4ccccc4)c(C)nn23)CC1` it was 695 cells; in that of `Cc1ccc(CN2CCN(c3ccccc3)CC2)o1`, 791 cells. In the case of `CCOc1ccc(N2CC(C(=O)NCCc3ccc(F)cc3)CC2=O)cc1` (stereo unspecified) it was 39 cells. The result for `COc1cc(C2C(C#N)=C(N)Oc3cc(N)ccc32)cc(OC)c1OC` (stereo unspecified) reads 223 cells.

`COc1ccccc1NS(=O)(=O)c1ccc(N/N=C/c2c(C)nn(-c3ccccc3)c2N2CCCC2)c([N+](=O)[O-])c1` displayed a cell count of 636 cells. The result for `CSCCOC(=O)c1[nH]c2c(c1C)C(=O)CC(c1ccco1)C2` (stereo unspecified) reads 168 cells. The result for `CCCN1C(=O)/C(=C\C=C2\N(CC)c3ccccc3C2(C)C)SC1=S` reads 689 cells; that for `COc1ccc(N(C(=O)CCl)C(C(=O)NCCc2ccccc2)c2cccs2)cc1Cl` (stereo unspecified), 594 cells. The result for `COc1ccc(C(C#N)N2CCOCC2)cc1` (stereo unspecified) reads 753 cells; that for `Cc1ccc(NS(=O)(=O)c2ccc(-c3cnc(C4CC4)o3)cc2)c(C)c1`, 218 cells. Consider `OC(COc1ccc2cc(Br)ccc2c1)Cn1ccnc1` (stereo unspecified), for which the cell count was found to be 803 cells. The result for `Cc1c(C(=O)N/N=C/c2ccc(N(C)C)cc2)[nH]c2ccc(Cl)cc12` reads 234 cells; that for `COCCCN=C1NN=C(c2cc(C)n(Cc3ccco3)c2C)CS1`, 37 cells. The result for `CCNc1nc(N)c(C(=O)c2ccc(Cl)s2)s1` reads 781 cells; that for `O=C(Nc1nc(-c2ccc(-c3ccccc3)cc2)cs1)C1CCCO1` (stereo unspecified), 829 cells. Regarding `COc1cc(C(=S)N2CCOCC2)cc(OC)c1OC(=O)c1ccccc1[N+](=O)[O-]`, the cell count turned out to be 793 cells. The result for `COCc1ccc(C(=O)NC2CCCc3c2cnn3-c2ccc(C)c(C)c2)o1` (stereo unspecified) reads 824 cells. In the case of `Cc1ccc(-c2ccc(/C=C3\SC(N4CCOCC4)=NC3=O)o2)cc1` it was 147 cells; in that of `COc1ccc(NC(=O)CSc2nc3ccccc3nc2N2CCCCC2)cc1`, 723 cells; in that of `CCOC(=O)C1=C(C)n2c(s/c(=C3\C(=O)Nc4ccccc43)c2=O)=NC1c1ccc(OC)cc1` (stereo unspecified), 685 cells. The compound `CCCC1(c2ccccc2)NC(=O)N(CC(=O)Nc2cc(C)ccc2OC)C1=O` (stereo unspecified) registered a cell count of 803 cells.

With `CC(C)(C)NC(=O)CSC(=Nc1ccccc1F)NC#N`, the cell count is 248 cells. Regarding `CC(C)C(C)NC(=O)CSc1nc2scc(-c3ccco3)c2c(=O)n1-c1ccccc1` (stereo unspecified), the cell count was 752 cells. Compound `Cc1cccc(NC(=O)c2nc[nH]c2C(=O)NCC(=O)OC(C)(C)C)c1` registered a cell count of 674 cells. In the case of `CCN(CC)CCNC(CC(=O)Nc1ccc(Cl)cc1Cl)C(=O)O` (stereo unspecified) it was 721 cells; in that of `CCOC(=O)c1ccc(NC(=O)CSc2nc3c(c(=O)n2CC)SC(C)C3)cc1` (stereo unspecified), 714 cells; in that of `O=C(c1ccccc1)c1cc([N+](=O)[O-])ccc1N1CCOCC1`, 267 cells.

Consider `Cc1ccc(C(NC(=O)C2CCCCC2)c2c(O)ccc3ccccc23)cc1` (stereo unspecified), for which the cell count is 636 cells. In the case of `Cc1ccc(-c2c(C(=O)NC(C)C)oc(=O)c3ccccc23)cc1`, the cell count turned out to be 753 cells. Consider `COc1ccc2nc(N=Nc3ccc(O)c4ccccc34)sc2c1`, for which the cell count came to 559 cells. The result for `CCOc1ccc(CCNC(=O)COC(=O)/C=C/c2ccc(C)o2)cc1OCC` reads 801 cells; that for `Cc1cccc(NC(=O)CSc2nnc(C)c(=O)n2N)c1`, 743 cells. In the case of `O=[N+]([O-])c1sccc1CS(=O)(=O)c1ccccc1` it was 737 cells; in that of `C/C=C(/C)C(=O)O[C@@H]1[C@H](OC(=O)C=C(C)C)c2c(ccc3ccc(=O)oc23)OC1(C)C`, 761 cells; in that of `COc1ccc(/C=C(/NC(=O)c2cccs2)C(=O)Nc2ccc(C)cc2)cc1OC`, 720 cells.

Compound `CCCOc1ccc(-c2csc(NC(=O)CN3C(=O)CCC3=O)n2)cc1` gave a cell count of 652 cells. In the case of `CN(C)S(=O)(=O)c1cccc(NC(=O)CC23CC4CC(CC(C4)C2)C3)c1` it was 830 cells. On to `C/C(=N\NC(=O)c1c(Cl)c(C)nn1C)c1ccc(NC(=O)C2CCC2)cc1`, for which the cell count worked out at 282 cells. The result for `Cc1ccc(-c2cc(-c3c(C)nn(C)c(=O)c3N)[nH]n2)cc1` reads 755 cells. The result for `CCN(Cc1ccccc1)C(=O)C1CCN(C(=O)Nc2ccccc2)CC1` reads 825 cells; that for `COc1ccc2nc(N=Nc3c(O)ccc4ccccc34)sc2c1`, 559 cells; that for `Cc1ccccc1C(=O)NC1CCN(Cc2nnnn2C2CCCC2)CC1`, 724 cells. In the case of `CSc1ccccc1NC(=O)C1=CC(c2cccs2)=NS(=O)(=O)N1C` it was 757 cells; in that of `O=[N+]([O-])c1ccc(-[n+]2nc(-c3ccccc3)nn2-c2ccccc2)cc1`, 797 cells. `Oc1[nH]c2ccccc2c1N=Nc1nc(Nc2ccccc2)nc(N2CCOCC2)n1` gave a cell count of 574 cells. The compound `CC(C)C(=O)N(Nc1nc2ccccc2s1)C(=O)C(C)C` came in with a cell count of 658 cells. In turn, `Cc1c(/C=N\NC(=O)C2COc3ccccc3O2)c2ccccc2n1C` (stereo unspecified) yielded a cell count of 227 cells.

The compound `COc1ccc(CCNC(=O)c2cc3c(F)cccc3s2)cc1OC` displayed a cell count of 798 cells. The result for `C#CCn1c(=NC(=O)c2sc3ccccc3c2Cl)sc2cc(S(N)(=O)=O)ccc21` reads 264 cells; that for `C=CCOC(=O)c1[nH]c2c(c1C)C(=O)CC(c1ccco1)C2` (stereo unspecified), 196 cells; that for `O=c1cc(-c2ccccc2)[nH]c2cc(Cl)ccc12`, 292 cells. The result for `Cc1ccc(/C=N/NC(=O)c2cc(-c3cccnc3)nc3ccccc23)cc1` reads 225 cells; that for `C#CC(=O)N(c1ccc(OC)c(OC)c1)C(C(=O)NC1CCCC1)c1cccs1` (stereo unspecified), 566 cells; that for `Cc1cc(C)cc(NC(=O)CCC(=O)Nc2cc(C)on2)c1`, 771 cells. `Cc1ccc(-c2cc(C(=O)N/N=C/c3c(C)nn(-c4ccccc4)c3C)[nH]n2)cc1` showed a cell count of 283 cells.

Compound `CC(C)CCOc1ccc(C(=O)NCC(c2ccco2)N(C)C)cc1` (stereo unspecified) returned a cell count of 814 cells. In the case of `Cc1nn(-c2ccccc2)c(C)c1/C=N/NC(=O)c1cc(-c2ccccc2)n[nH]1` it was 215 cells; in that of `CC(C)n1c(O)c(N=NC(=O)C2COc3ccccc3O2)c2ccccc21` (stereo unspecified), 749 cells. In the case of `Cc1cc(C(c2ccc(O)cc2)c2cc(C)c(O)cc2C)c(C)cc1O`, the cell count came out at 798 cells.

(Values after PubChem BioAssay AID1656 (Sanford-Burnham Center for Chemical Genomics, 2009).)
